The text below walks through data of paper PMC4336329 (PLoS ONE, 2015).

Molecules are shown by their SMILES. The whole screen tested about 310,000 compounds, of which about 14,000 (4.5%) showed an effect of 50% or more. Effects have a minus sign here. Some of the results follow.
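Further: peak tail current of the secondary pulse compared with the same well before compound.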

Sequence of human ether-à-go-go-related gene (hERG) potassium channel (Q12809 whole entry, looked up): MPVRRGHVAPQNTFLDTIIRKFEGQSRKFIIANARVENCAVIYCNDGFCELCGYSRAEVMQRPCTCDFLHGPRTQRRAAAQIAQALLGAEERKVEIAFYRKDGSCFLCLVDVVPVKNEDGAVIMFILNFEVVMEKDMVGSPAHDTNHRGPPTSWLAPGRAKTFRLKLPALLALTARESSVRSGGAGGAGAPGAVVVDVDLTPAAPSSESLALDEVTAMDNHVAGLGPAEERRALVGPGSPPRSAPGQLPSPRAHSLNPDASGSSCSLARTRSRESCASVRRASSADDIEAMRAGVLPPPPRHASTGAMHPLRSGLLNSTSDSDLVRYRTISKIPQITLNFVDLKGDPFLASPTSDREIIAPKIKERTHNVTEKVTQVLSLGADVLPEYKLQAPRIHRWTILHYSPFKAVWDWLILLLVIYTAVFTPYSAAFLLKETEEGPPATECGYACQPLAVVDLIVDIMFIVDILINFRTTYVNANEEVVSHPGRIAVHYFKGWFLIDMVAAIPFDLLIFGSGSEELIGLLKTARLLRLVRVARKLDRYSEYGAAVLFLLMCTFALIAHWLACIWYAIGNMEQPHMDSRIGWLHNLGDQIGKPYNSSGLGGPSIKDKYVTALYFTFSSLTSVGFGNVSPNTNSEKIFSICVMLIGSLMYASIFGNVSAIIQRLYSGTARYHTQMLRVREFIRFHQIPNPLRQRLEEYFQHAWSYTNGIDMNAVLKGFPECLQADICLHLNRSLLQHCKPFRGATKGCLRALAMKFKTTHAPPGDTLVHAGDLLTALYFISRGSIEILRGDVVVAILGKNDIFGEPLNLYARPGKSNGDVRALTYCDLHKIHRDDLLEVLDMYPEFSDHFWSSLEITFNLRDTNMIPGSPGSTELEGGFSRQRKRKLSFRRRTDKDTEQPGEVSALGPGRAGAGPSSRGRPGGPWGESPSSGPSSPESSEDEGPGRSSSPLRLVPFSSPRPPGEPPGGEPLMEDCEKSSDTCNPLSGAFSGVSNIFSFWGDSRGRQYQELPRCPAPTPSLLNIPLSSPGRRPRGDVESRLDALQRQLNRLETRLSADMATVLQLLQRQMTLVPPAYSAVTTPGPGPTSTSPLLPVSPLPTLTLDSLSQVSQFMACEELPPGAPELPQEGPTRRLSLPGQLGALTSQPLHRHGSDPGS

The assay concerns the target human ether-à-go-go-related gene (hERG) potassium channel (human, UniProt Q12809). The experiment in a line: primary screen, population patch clamp on CHO cells stably expressing hERG.
With `CC(C)NC(=O)/C(=C\c1cccc([N+](=O)[O-])c1)NC(=O)c1ccccc1`, the “hERG current change (%, negative = inhibition) at 10uM” value is recorded as -18.1%. The same measure for `C=CC1C(OC2OC(CO)C(O)C(O)C2O)OC=C(C(=O)OC)C1CC1CC(=O)CC(CC(=O)CCc2ccc(O)cc2)O1` (stereo not shown): 2.27%; for `Cc1ccc(N/N=C2\COC(C)(C)CC2=O)cc1`: 11.7%; for `Cc1cc(C)n(-c2ccc(C(=O)Nc3ccc(S(=O)(=O)NCc4ccco4)cc3)cc2)n1`: 3.53%.

For the compound `Cc1cc(SCC(=O)Nc2ccccc2C)nc(C)n1`, the “hERG current change (%, negative = inhibition) at 10uM” value is on record as -1.35%. As for `Cc1c(NC(=S)NC(=O)CCc2ccccc2)c(=O)n(-c2ccccc2)n1C`, the figure is 5.75%. As for `CC(=O)/C(=N\Nc1ccccc1)Sc1cccc2cccnc12`, the figure is -4.51%; as for `Cc1ccc(C)c(OCC(=O)Nc2c[nH]c(=O)[nH]c2=O)c1`, 21%; as for `COc1ccc(N2CCN(C(=O)CN(C)S(=O)(=O)c3cccs3)CC2)cc1`, -17.9%. As to `O=C(O)CN1C(=O)/C(=C2\C(=O)N(Cc3ccccc3Cl)c3ccccc32)SC1=S`, the “hERG current change (%, negative = inhibition) at 10uM” value is reported as 19.2%.

For `CCCCOC(=O)c1ccc(O)cc1`, the “hERG current change (%, negative = inhibition) at 10uM” value turned out to be 13.5%. As for `COc1ccccc1C(CNC(=O)COc1ccccc1C)N1CCCC1` (stereo not shown), the figure is -30.4%; as for `Cc1c(NC(N)=O)c(=O)n(-c2ccccc2)n1C`, 3.79%. The same measure for `CCc1cccc2c1NC(=O)[C@]21[C@@H]2C(=O)N(Cc3ccccc3)C(=O)[C@@H]2[C@@H]2CCCN21`: -0.504%; for `CCOC(=O)CC(=O)Nc1ccsc1C(N)=O`: 15.9%; for `Cc1cc(NS(=O)(=O)c2ccc(NC(=O)NC(C)(C(F)(F)F)C(F)(F)F)cc2)no1`: -16.5%. As for `COC(=O)c1cc(COC(=O)c2cccnc2SC)oc1C`, the figure is -5.24%; as for `O=C(Nc1cccc(-c2nc3ncccc3o2)c1)c1cc2ccccc2o1`, -23.1%; as for `O=C(Nc1c(Cl)cc(Cl)cc1C(=O)NCCN1CCOCC1)c1ccc(Cl)cc1Cl`, -24.9%. Take `COc1ccccc1NC(C#N)c1ccccc1OCc1ccccc1` (stereo not shown): the “hERG current change (%, negative = inhibition) at 10uM” value is 24.8%.

For the compound `COc1cc(C(=O)Nc2ccc(Br)cc2C(=O)c2ccccc2)cc(OC)c1OC`, the “hERG current change (%, negative = inhibition) at 10uM” value was 12.4%. The same measure for `CCN(CC)CCn1c(NC(=O)c2ccc(C(F)(F)F)cc2)nc2ccccc21`: -25.7%; for `N#C/C(=C\c1cccs1)C(=O)NCc1ccco1`: -2.84%; for `O=C(OCc1c(Cl)cccc1Cl)c1cnccn1`: 15.4%. As for `CCn1c(SCC(=O)NNC(=O)c2ccc(OC)cc2)nnc1C1CC1`, the figure is 26.4%.

Regarding `CC(C)C(C(=O)NCc1ccco1)N(C(=O)CNS(=O)(=O)c1ccccc1)C1CCCC1` (stereo not shown), the “hERG current change (%, negative = inhibition) at 10uM” value is recorded as 9.1%. As to `COc1ccc(/C=C/C(=O)N2CCN(c3ccccn3)CC2)c2ccccc12`, the “hERG current change (%, negative = inhibition) at 10uM” value is reported as -17.1%. The same measure for `O=C(NC1CCCCC1)N(C1=NCCCCC1)c1ccc(Br)cc1`: -5.93%. The same measure for `Cc1cc(C)cc(N2Cc3ccccc3C2)c1`: -2.17%; for `COc1cc(/C=C/C(=O)OCC(=O)NCc2cccs2)ccc1OC(F)F`: 2.88%; for `OC(C#CCN1CCCC1)c1ccccc1` (stereo not shown): -2.28%.

Turning to `O=C1NC(c2ccccc2)CCC1(Cl)Cl` (stereo not shown), the “hERG current change (%, negative = inhibition) at 10uM” value is recorded as 6.57%. As for `O=C(NCCc1c[nH]c2ccccc12)c1cncc(Br)c1`, the figure is 24.5%.

As for `O=[N+]([O-])c1ccc(-n2nnnc2-c2ccccc2)cc1`, the “hERG current change (%, negative = inhibition) at 10uM” value was -21.3%.

As for `Cc1c(NC(=O)c2cc(-n3cnnc3)ccc2Cl)cccc1-c1nc2ccccc2o1`, the “hERG current change (%, negative = inhibition) at 10uM” value is -3.33%.

With `CCN1CCN(c2ccc(S(=O)(=O)N3CCOCC3)cc2NC(=O)/C=C/c2ccc([N+](=O)[O-])cc2)CC1`, the “hERG current change (%, negative = inhibition) at 10uM” value is given as -71.8%. As for `Fc1ccccc1NC(=S)N(CCCN1CCOCC1)Cc1cccnc1`, the figure is -4.08%; as for `Fc1ccc(-c2csc(N3CCOCC3)n2)cc1`, 10.5%. As for `Fc1ccccc1Nc1nc(-c2ccncc2)nc2ccccc12`, the figure is 13%. The same measure for `O=C(CCSc1ccc(Br)cc1)Nc1cccnc1`: -17.7%; for `COc1ccc(NC2(C#N)CCCCC2)cc1`: 9.75%; for `CCOc1ccc(NS(=O)(=O)c2ccc(OCC)c3ncccc23)cc1`: 1.24%.

Regarding `COc1cccc(/C=C2\CC(C)Cc3c2nc2ccccc2c3C(=O)O)c1OC` (stereo not shown), the “hERG current change (%, negative = inhibition) at 10uM” value was 25.7%. Consider `C=CCOc1ccc(/C=C/C(=O)OCC(=O)N2CCC(c3ccccc3)=N2)cc1`, for which the “hERG current change (%, negative = inhibition) at 10uM” value amounted to 4.97%. As to `Cc1ccc(NC(=O)COC(=O)Cc2ccsc2)c(C)c1`, the “hERG current change (%, negative = inhibition) at 10uM” value was 4.63%. The same measure for `COc1cc(CN(CCN(C)C)Cc2ccccc2)ccc1OCc1ccccc1.O=C(O)C(=O)O`: -31%; for `CN1C(=O)C(CC(=O)NC2CCCCC2)SC1=Nc1ccccc1` (stereo not shown): -21.6%. The same measure for `CC(C)CCOP(=O)(c1ccc(N(C)C)cc1)C(O)c1ccc(Cl)cc1Cl` (stereo not shown): 0.259%; for `CCN(CC)C(=O)CSc1nnc(CSc2ncccn2)n1C`: 3.28%. The same measure for `COC(=O)c1[nH]c2ccccc2c1NC(=O)C(C)N1CC(C)OC(C)C1` (stereo not shown): 5.31%; for `CC(C)N(C(=O)c1sc2cc([N+](=O)[O-])ccc2c1Cl)C(C)C`: -13.4%; for `NS(=O)(=O)c1ccc(CCNC(=O)c2ccco2)cc1`: -8.99%.

`COc1ccnc(Oc2ccccc2)c1C(=O)N/C=N/OCc1ccccc1F`: the “hERG current change (%, negative = inhibition) at 10uM” value is on record as -20.7%. The same measure for `CN(C)C=O.Cc1ccc2nc(SCC(=O)c3c(N)n(C)c(=O)n(C)c3=O)[nH]c2c1`: 6.78%; for `CCOc1ccccc1CNC(=O)c1ccc2nc(N3CCOCC3)sc2c1`: -47.5%. As for `COc1ccc(-c2nc(C#N)c(NCc3cccnc3)o2)cc1OC`, the figure is -26.1%; as for `COc1ccc(C)cc1S(=O)(=O)Nc1ccc(-n2c(C)nc3ccccc3c2=O)cc1`, -44.3%; as for `COc1ccc(CN2CCC(CO)(CCOc3ccccc3)CC2)cc1C`, -81.8%. The same measure for `CSc1ccccc1NC(=O)CN(C)C(=O)C1CC(=O)N(C(C)c2ccccc2)C1` (stereo not shown): -0.715%. As to `COc1cccc(N2CCN(S(=O)(=O)c3ccc4c(c3)NC(=O)CS4)CC2)c1`, the “hERG current change (%, negative = inhibition) at 10uM” value is listed as 32.5%. As for `CCCNC(=O)Nc1ccc2c(c1)nc(C)n2C`, the figure is -2.32%; as for `O=C(CSc1ccc(-c2cccs2)nn1)N1CCCCCC1`, -15.2%; as for `Clc1cccc(OCCOCCN2CCNCC2)c1Cl.O=C(O)C(=O)O`, -8.19%. As for `Cc1cccc(C)c1NC(=S)N(Cc1ccco1)C1CCN(C(C)C)CC1`, the figure is -4.72%; as for `Cc1nc2c(o1)CCc1ccccc1C2O` (stereo not shown), 5.53%. The same measure for `CCC(C)N1C(=O)/C(=C/c2c(NCCCOC(C)C)nc3c(C)cccn3c2=O)SC1=S` (stereo not shown): -1.63%; for `Cc1csc(SCc2ccc(C(=O)O)cc2)n1`: -4.67%.

As for `CC(=O)Oc1cc2c(C(=O)NCCCN3CCOCC3)c(C)oc2c2ccccc12`, the “hERG current change (%, negative = inhibition) at 10uM” value is recorded as -18.2%. As for `O=S(=O)(NC1CCCC1)c1ccccc1Br`, the figure is -0.214%; as for `CC(C)Oc1ccc(C(=O)Nc2c3c(nn2-c2ccccc2)CS(=O)(=O)C3)cc1`, -65.9%. With `COc1ccc2c(c1)CC/C(=C\Nc1ccc3c(c1)OCO3)C2=O`, the “hERG current change (%, negative = inhibition) at 10uM” value was 11.3%.

Turning to `CN(C)S(=O)(=O)c1ccc(N2CCCC2)c(C(=O)NNC(=O)c2ccccc2)c1`, the “hERG current change (%, negative = inhibition) at 10uM” value was -8.32%.

With `CC(C)=CCN1CCN(CCCc2ccccc2)CC1CCO` (stereo not shown), the “hERG current change (%, negative = inhibition) at 10uM” value is on record as -26.8%. As for `Cc1ccsc1CNCC(O)c1ccccc1.Cl` (stereo not shown), the figure is 9.66%; as for `COc1cc(C2CC(=O)N(CC(=O)NCC3CCCO3)c3ccccc3S2)cc(OC)c1OC` (stereo not shown), 15.4%; as for `O=S(=O)(c1ccccc1Oc1ccc(Cl)cc1Cl)N1CCCCC1`, 4.09%. As for `CCOC(=O)C1(C)C=C(Nc2ccc(NC(C)=O)cc2)C(=O)N1c1ccc(NC(C)=O)cc1` (stereo not shown), the figure is 12.2%. The same measure for `COc1ccc2c(c1)CCc1c(C(=O)N3CCOCC3)noc1-2`: -19.7%; for `CC(C)CC(=O)Nc1nnc(SCC(=O)NC2CCCCC2)s1`: 21.5%.

Consider `CCOC(=O)N1CCN(C(=O)C(NS(=O)(=O)c2cccc3nsnc23)c2ccccc2)CC1` (stereo not shown), for which the “hERG current change (%, negative = inhibition) at 10uM” value is reported as -47.1%.

For the compound `O=C(CCCn1c(=S)[nH]c2ccsc2c1=O)Nc1ccc2c(c1)OCO2`, the “hERG current change (%, negative = inhibition) at 10uM” value is 17.2%. As for `Cc1ccc(-c2noc(CCC(=O)NCc3ccc4c(c3)OCO4)n2)cc1`, the figure is 15.7%; as for `O=C(CCCCn1c(=O)[nH]c2ccccc2c1=O)N1CCN(c2ncccn2)CC1`, -0.772%.

With `COC(=O)CNC(=O)Cn1c(=O)n(Cc2ccc(F)cc2)c(=O)c2sccc21`, the “hERG current change (%, negative = inhibition) at 10uM” value turned out to be 2.77%. As for `O=C(CSc1ccccn1)Nc1ccc(NC(=O)CSc2ccccn2)cc1`, the figure is 12%; as for `O=C(COC(=O)c1ccc2c(c1)OCCO2)NCCC1=CCCCC1`, -10.8%; as for `Cl.O=C(CSc1nnc(-c2ccccc2)n1C1CCCCC1)Nc1ccc(S(=O)(=O)Nc2ccccn2)cc1`, -5.23%.

Regarding `Cc1ccc(-c2c3c(=O)n(C)c(=O)n(C)c3cn2Cc2ccccc2)cc1`, the “hERG current change (%, negative = inhibition) at 10uM” value is given as -27.5%.
